{"source": "paper PMC10653918", "about": "“Antibiotic that inhibits trans-translation blocks binding of EF-Tu to tmRNA but not to tRNA” (mBio, 2023)", "key": {"[1]": {"tested_on": "E. coli cells with EF-Tu R318K", "conditions": "cells with EF-Tu R318K as only copy"}, "EF-Tu•GTP R318A": {"target": "EF-Tu•GTP R318A (Escherichia coli, UniProt P0CE47, R319A)", "test": "biochemical"}, "EF-Tu R318A H319A E378A": {"target": "EF-Tu R318A H319A E378A (Escherichia coli, UniProt P0CE47, E379A/H320A/R319A)", "conditions": "MST, Fig. S5"}}, "data": [{"smiles": "CCCn1nnnc1NC(=O)c1cccc(Cl)c1", "note": "[KKL-55]", "values": [{"measurement": "MIC compared with wild type", "setting": "[1]", "result": "same MIC for KKL-55 as the wild type"}, {"measurement": "Kd", "setting": "EF-Tu•GTP R318A", "result": "> 30", "unit": "µM"}, {"measurement": "Kd of R318A mutant relative to wild-type EF-Tu", "setting": "EF-Tu•GTP R318A; fold higher than wild-type EF-Tu", "result": 15, "unit": "fold"}, {"measurement": "binding with triple alanine mutant EF-Tu", "setting": "EF-Tu R318A H319A E378A", "result": "abolished detectable binding"}]}]}
